From patent US8198405B2, “Stabilized alpha helical peptides and uses thereof” (Dana-Farber Cancer Institute, Inc., priority 2003, dated 2012)

System: RS4; 11 leukemia cells
Details: for leukemic growth (bioluminescent flux): 10 mg/kg daily tail vein injection for seven days

SMILES	median survival (10 mg/kg daily for seven days)	leukemic growth (bioluminescent flux)
CCCC[C@H](NC(=O)[C@]1(C)CCCC=CCCC[C@](C)(NC(=O)[C@H](C)NC(=O)[C@H](CC(C)C)NC(=O)[C@H](Cc2c[nH]cn2)NC(=O)[C@H](CCCNC(=N)N)NC(=O)[C@H](C)NC(=O)[C@@H](NC(=O)[C@H](CC(N)=O)NC(=O)[C@H](CCCNC(=N)N)NC(=O)[C@@H](NC(=O)[C@@H](NC(=O)[C@H](CC(=O)O)NC(=O)[C@H](CCC(=O)O)NC(C)=O)[C@@H](C)CC)[C@@H](C)CC)[C@@H](C)CC)C(=O)N[C@@H](C(C)C)C(=O)NCC(=O)N[C@@H](CC(=O)O)C(=O)N1)C(=O)N[C@@H](CC(=O)O)C(=O)N[C@@H](CCCNC(=N)N)C(=O)N[C@@H](CO)C(=O)N[C@H](C(=O)N[C@@H](Cc1c[nH]c2ccccc12)C(N)=O)[C@@H](C)CC [SAHB3BIDA]	11 days	tumor regression observed by day 5
CCCC[C@H](NC(=O)[C@]1(C)CCCC=CCCC[C@](C)(NC(=O)[C@H](C)NC(=O)[C@H](CC(C)C)NC(=O)[C@H](Cc2c[nH]cn2)NC(=O)[C@H](CCCNC(=N)N)NC(=O)[C@H](C)NC(=O)[C@@H](NC(=O)[C@H](CC(N)=O)NC(=O)[C@H](CCCNC(=N)N)NC(=O)[C@@H](NC(=O)[C@@H](NC(=O)[C@H](CC(=O)O)NC(=O)[C@H](CCC(=O)O)NC(C)=O)[C@@H](C)CC)[C@@H](C)CC)[C@@H](C)CC)C(=O)N[C@@H](C(C)C)C(=O)N[C@@H](CCC(=O)O)C(=O)N[C@@H](CC(=O)O)C(=O)N1)C(=O)N[C@@H](CC(=O)O)C(=O)N[C@@H](CCCNC(=N)N)C(=O)N[C@@H](CO)C(=O)N[C@H](C(=O)N[C@@H](Cc1c[nH]c2ccccc12)C(N)=O)[C@@H](C)CC [SAHB3BID(G→E)A] (Ac-EDIIRNIARHLA[S5]VED[S5][Nle]DRSIW-NH2; staple 13-17; N-terminus assumed)	–	did not exhibit tumor regression

Where a SMILES comes first, the peptide text is derived from it. Bridges are numbered along the chain shown (N, C = ends). [ ]: non-standard residue; d: D form. S5 = C=CCCC[C@](C)(N)C(=O)O; Nle = CCCC[C@H](N)C(=O)O
